# ChEMBL document CHEMBL4888484, “Replenishing the malaria drug discovery pipeline: Screening and hit evaluation of the MMV Hit Generation Library 1 (HGL1) against asexual blood stage Plasmodium falciparum ,using a nano luciferase reporter read-out” (2022)
# The whole screen tested about 150,000 compounds, of which about 540 (0.36%) showed an effect of 50% or more. The list shows a part of the results.
# Test system: Plasmodium falciparum
# Experiment: Primary screen in NF54 nanoGlo assay, in single point, at 2uM, 72h; a lower Z score goes with more inhibition
# Type: functional, Erythrocyte
# Conditions: timepoint 72 hour
Structure (SMILES),% Inhibition,Z score
COc1ccc(CC(=O)n2nc(-c3cccc(C)c3)nc2N)cc1OC,-9%,1.53
N#CCNC(=O)CC[C@@H](Cc1ccc(Cl)cc1)C(=O)NCC#N,-1%,0.21
COC(=O)CCN(C(=O)c1cccc(NC(=O)OC)c1)C1CCOCC1,-9%,1.18
c1ccc(C2(c3nc(C[C@H]4CCCO4)no3)CC2)cc1,-9%,1.1
CCn1cc(CN2CCCC23CCN(c2cccc(C)n2)CC3)cn1,2%,-0.37
CCc1nc(C)c(CN2CCC(CCC(=O)Nc3ccccc3)CC2)[nH]1,-13%,1.86
Cc1nc(Cn2nnc(NC(=O)c3cccc(F)c3)c2C)no1,36%,-0.91
Cc1ccc(C)c(-n2ncc3c(N4CCCCCC4)ncnc32)c1,-18%,2.1
CC(Oc1ccc2c(c1)CCC2)C(=O)N1CCCC1c1ccncc1 (stereo unspecified),-14%,1.74
CC1(C)c2[nH]c3ccccc3c2C[C@H]2C(=O)N(CC3CCCO3)CC(=O)N21 (stereo partly specified),-1%,0.16
O=S(=O)(Nc1ccc(-c2ccno2)cc1)c1ccc(-c2cnc(C3CC3)o2)cc1,-6%,1.2
O=C(c1coc2ccccc12)N(CCO)Cc1cccnc1,-4%,0.33
Cc1noc(C)c1C(=O)Nc1ccncc1,-5%,0.79
O=C([C@@H]1C[C@H](F)CN1S(=O)(=O)c1cc(F)ccc1F)N1CCc2ccccc21,-4%,0.52
Cc1cc(NC(=O)Nc2ccc3c(c2)OCCO3)n(C)n1,5%,-0.65
CCN(c1nc2nc(C)c(Cl)c(C)n2n1)S(=O)(=O)c1ccc(C)cc1,-1%,0.17
Cc1nc([C@H](C)NC(=O)c2coc(COc3ccccc3F)n2)c(C)s1,-7%,0.99
CCn1cc(Br)c(CC#N)n1,32%,-3.63
CCOC1CC(c2nc(-c3cccc(C(=O)N(C)C)c3)no2)C1 (stereo unspecified),-15%,1.89
C/C(=C\c1cc(Cl)ccc1O)CN1CC[C@@](N)(C(=O)O)C1,-8%,1.04
CCc1cc(C2CC2)nc(NS(=O)(=O)c2cnn(CC3CC3)c2)n1,-12%,1.53

Structure (SMILES),% Inhibition,Z score
CCOCCn1nc(C)cc1C(=O)N[C@H]1C[C@@H](c2cc(=O)[nH]c(N)n2)C1,-25%,3.15
COc1nccc(CN[C@@]2(CO)CCCc3ccccc32)c1F,6%,-0.63
CCOc1cccc(-c2noc(-c3nnn(Cc4nc(-c5ccccc5OC)oc4C)c3C)n2)c1,-5%,0.76
CCOC1CCN(C(=O)N[C@H](c2ccc(F)cc2)C2CCC2)CC1,-7%,0.84
NC(=O)c1cc(Cl)cc(S(=O)(=O)N2CCOCC23CCC3)c1,-4%,0.33
CCN1CCN(C[C@@H]2CN(c3ccc(Cl)cn3)C[C@@H]2CO)CC1,-10%,1.36
CCc1c(C)c(C(=O)N[C@@H](C)c2ccccc2)n(Cc2ccc(C)cc2)c1C,-6%,1.04
Cc1[nH]c2ccccc2c1C(c1ccc(Br)o1)c1c(C)[nH]c2ccccc12,10%,-1.07
O[C@H]1[C@H](NCc2ccco2)[C@H]2CO[C@H](O2)[C@@H]1N1CCCCC1,31%,-3.5
Cc1c(C(=O)Nc2ccc(Oc3ccncc3)c(Cl)c2)nnn1[C@H]1CCNC1,6%,-1.15
c1cn2c(n1)CN(Cc1nc(-c3ccsc3)no1)CC2,1%,-0.21
Cc1sc(-c2noc(C3CC3)n2)cc1NC(=O)c1ccc2c(c1)OCO2,-1%,0.06
CCc1ccc(-c2ccc(=O)n(CCc3nc(-c4ccccc4)no3)n2)cc1,-3%,0.57
Cc1ccc(NC(=O)CC(=O)N2CCN(Cc3ccc4c(c3)OCO4)C(=O)C2)cc1,-8%,1.62
O=C(c1c[nH]c2ncc(Br)cc12)N1C[C@@H]2[C@@H](CF)[C@@H]2C1,-1%,0.1
Cc1ccc2nnc(-c3ccccc3)c(C(=O)Nc3ccc(F)cc3Cl)c2c1,-7%,0.84
Cc1cc2c(cc1C)NC1(CCCCCC1)C(NCc1ccc3c(c1)OCO3)=N2,-6%,0.73
CCN(CCC(F)(F)F)S(=O)(=O)N1CC(C)OCC1C (stereo unspecified),-3%,0.49
CO[C@@H](C)c1noc(CN(C)C(=O)c2ccc(Cl)c3occc23)n1,-10%,1.29
CN1CCCCC[C@H]1C(=O)NC1(C)CCCCCC1,5%,-0.81
Cc1cc(F)c(CN[C@H]2CCn3ccnc3C2)c(Cl)c1,-7%,1.31

Structure (SMILES),% Inhibition,Z score
CC(C)[C@H](C)N(C(=O)CNC(=O)c1ccc(F)cc1F)C1CC1,-10%,1.83
CC1Cc2cc(F)ccc2C(C)N1C(=O)c1cc(C(=O)O)ccn1 (stereo unspecified),4%,-0.51
COC(=O)N(C)c1ccc(N[C@H]2CCCN(c3ccccc3Cl)C2=O)cc1,13%,-1.52
CC(C)(c1noc(-c2ccc(S(C)(=O)=O)s2)n1)C1CCC1,-13%,1.95
Cc1ccccc1Cn1cnc2c1c(=O)n(C[C@H]1CCCO1)c(=O)n2-c1ccc(Cl)cc1,-21%,2.02
CCC(CC#N)NC(=O)C(C)(C)[C@H]1CCC[C@@H](C(F)(F)F)N1 (stereo partly specified),-4%,0.7
CC1CCC2C(C1)c1c(nc(O)n(Cc3ccccc3)c1=O)OC2(C)C (stereo unspecified),-2%,0.43
O=c1c2c(ccn1C[C@H]1CCCO1)ccn2Cc1cccnc1,-5%,0.86
COc1ccc(S(=O)(=O)N(CCC(=O)N2CCNCC2)Cc2ccc(C)cc2)cc1,5%,-0.85
CCOC(=O)C1(CC2CC2)CCN(Cc2ccc(C(=O)OC)cc2)CC1,-4%,0.52
CCC(=O)Nc1ccc(N2CCCN(C(=O)Nc3cccc(C(F)(F)F)c3)CC2)c(C(=O)NCc2ccc(F)cc2)c1,-16%,1.72
COc1ccc2c(c1)N1CCN(Cc3ccc(Cl)cc3)CC1C(C(=O)N1CCOCC1)C2 (stereo unspecified),-7%,0.86
O=C(CCc1cccs1)N1CCC(OC[C@H]2CCCO2)CC1,-7%,1.16
O=C(CCCCC(=O)Nc1nc(-c2ccccc2)cs1)Nc1nc(-c2ccccc2)cs1,-5%,0.53
CCCN(CCC)C(=O)Cn1c(=O)n(CCc2cccs2)c(=O)c2ccccc21,-16%,2.53
CCN1CCN(CCC(=O)NC(C)(C)c2nc(C)cs2)CC1,6%,-0.9
Cc1cc(NCc2nc(CC(C)C)no2)nn1CC(F)(F)F,0%,0.04
Cc1nocc1CN1C[C@@H](F)C[C@H]1CO,-10%,1.15
Cc1cc(S(=O)(=O)N2CCC(=O)Nc3cccnc32)c(C)o1,1%,-0.09
Cn1cc(-c2csc(CC(=O)NCc3ccco3)n2)cn1,-5%,0.48
Nc1nn2cc(-c3cc4ccccc4o3)nc2c2ccccc12,-6%,1.22

Structure (SMILES),% Inhibition,Z score
CCn1nccc1CN1CC2CCCC2(C(=O)OC)C1 (stereo unspecified),-13%,1.5
O=C(NCc1noc(-c2cccc(F)c2)n1)c1cncc(N2CCOCC2)c1,0%,0
COc1c(C)cnc(CN2CCC(N(C)C(=O)Cc3cnn(C)c3)CC2)c1C,7%,-1.04
FC(F)(F)c1cccc(N2CCN(c3nc(-c4ccccc4)nc4sc(-c5ccccc5)cc34)CC2)c1,-8%,0.85
Cc1c(CC(=O)NCC(F)F)c2c(n1Cc1ccc(F)cc1)CCCC2=O,-9%,0.9
COc1cc(CC2CN(C(=O)c3ccc(=O)n(C)n3)C2)cc(OC)c1,-11%,1.49
COc1cccc(CC(=O)N2CCCCCCN(C)C(=O)[C@H]3CCC[C@H]32)c1,-12%,1.91
CCOCCn1ccnc1-c1cccnc1,-1%,0.14
Cc1csc(CN(C[C@H]2CCCO2)C(=O)Nc2cn(C)nn2)n1,-4%,0.55
COc1cc(OC)cc(C(=O)N/C(=N/c2ccc3c(c2)OCCO3)NC[C@H]2CCCO2)c1,-11%,0.98
Cc1cccc(OCC(O)CNC2C3CCCOC3C2(C)C)c1 (stereo unspecified),-10%,0.93
O=C(Nc1ccc(NC2CCOCC2)cc1)[C@@H](O)CC1CCCCC1,-11%,1.76
Cc1cc(C)cc(Nc2nc(-c3c[nH]c4ccccc34)cs2)c1,0%,0.07
O=C(NCCCNCc1cnc(C2CCC2)s1)c1cccc(O)c1,3%,-0.42
COc1ccc2oc(CN[C@@H](C)CCn3cccn3)nc2c1,-6%,1.11
CCCNC(=O)CN(C)Cc1nnnn1CCC,3%,-0.42
Cc1nn(C(C)(C)C)cc1C(=O)N[C@H]1CCCNC1=O,-6%,0.69
CC(C)CC(C)NC(=O)N1CCCC(C2(C)OCCO2)C1 (stereo unspecified),-2%,0.28
O=C(CN1CC[C@@H](C(=O)O)c2cc(Br)ccc21)Nc1ccon1,-1%,0.11
Cc1oc(-c2cccc(Cl)c2)nc1CN1CCN(S(=O)(=O)c2cccs2)CC1,-6%,1.09
